Measurements: PubChem BioAssay AID624296 (National Center for Advancing Translational Sciences (NCATS), 2012)
About 9,900 (2.8%) of roughly 350,000 compounds were called active. This list was built around the results that the source calls inconclusive (neither active nor inactive); the mix of calls is not that of the screen. The call rests on the fitted dose curve; in most records, active means well fitted activation curve with a large enough effect; inconclusive means small, poorly fitted or top-dose-only effect; inactive means no such curve, though single readings can be large or run the other way. No potency is given beside an inconclusive call; the fits are too rough.

Experiment: A quantitative high throughput screen for small molecules that induce DNA re-replication in MCF 10a normal breast cells. Further: nearly all actives have a fitted effect of over 50% in size. On activity, positive = re-replication: % of control where 0% means no effect.
Settings: MCF 10A DNA re-replication, Hoechst nuclear intensity, 48 h; activity, positive = re-replication: at 46.1 µM (top of the series)
Potency means the concentration at half of the fitted maximal effect; tags describe the fitted curve by direction and shape.

Structure (SMILES) | Potency | activity, positive = re-replication
COc1ccc(NC(=O)c2nc(C)n(-c3ccc([N+](=O)[O-])cc3)n2)cc1 | inconclusive [activator, single point] | 
CCOc1ccc(S(=O)(=O)NCCC(=O)NCCOc2ccccc2OC)cc1 | inconclusive [activator, full curve, poor fit] | 
CCO[C@@H]1OC(C(=O)NCc2ccccc2)=C[C@H](C(C)(C)C)[C@H]1CCCO | inconclusive [activator, full curve, poor fit] | 
O=[N+]([O-])O[C@H]1CO[C@H]2[C@@H]1OC[C@H]2O |  | inactive: -1.29%
COc1ccc(C2C3=C(COC3=O)Oc3cc4c(cc32)OCO4)cc1OC (centres undefined) | active: 2.31 µM | 
CC1(C)CC(C(CC(=O)Nc2nccs2)c2ccccc2)CCO1 (centres undefined) | inconclusive [activator, partial curve, poor fit] | 
O=C(Cc1ccc([N+](=O)[O-])cc1)Nc1ccc2c(c1)CCC2 |  | inactive: 0.171%
CCC(=O)Nc1ccc(Cl)c(NC(=O)C(C)C)c1 | inconclusive [activator, single point] | 
Cc1cc(N2CCOCC2)nc(SCc2c(Cl)cccc2Cl)n1 | inconclusive [activator, partial curve, poor fit] | 
CCSc1nnc(-c2c[nH]c3ccccc23)o1 |  | inactive: -0.772%
Nc1cccc2c1C(=O)N(CC(=O)NC13CC4CC(CC(C4)C1)C3)C2=O | inconclusive [activator, partial curve, poor fit] | 
CCOC(=O)C1(Cc2cccc(Cl)c2)CCCN(C(=O)c2cc(CC)on2)C1 (centres undefined) |  | inactive: 16.5%
Cc1ccc([C@@H]2CC=C(C(=O)O)[C@H](c3cccc(Cl)c3)N2S(=O)(=O)c2ccccc2C)cc1 | inconclusive [activator, single point] | 
Cc1nn(CC(=O)N2c3ccccc3NC(=O)C2(C)C)c(C)c1[N+](=O)[O-] | inconclusive [activator, single point] | 
COCCCn1c(C)nc2c(c1=O)c1nc3ccccc3nc1n2CCc1ccccc1 | inconclusive [activator, single point] | 
CCOC(=O)c1ccc(-c2ccc(/C=N/NC(=O)c3cncc(Br)c3)o2)cc1 |  | inactive: 6.61%
CC(C)c1ccc(Cc2nnc(NCCCO)[nH]c2=O)cc1 | inconclusive [activator, partial curve, poor fit] | 
CCOc1ccc(N2C(N)=NC(N)=NC2(C)C)cc1 | active: 7.31 µM | 
CCc1ccc(N(C(=O)CNC(=O)c2cccs2)C(C(=O)NC(C)(C)C)c2cc(OC)c(OC)c(OC)c2)cc1 (centres undefined) | inconclusive [activator, single point] | 
